{"source": "paper PMC12820563", "about": "“FoxP3 forms a head-to-head dimer in vivo and stabilizes its multimerization on adjacent microsatellites”", "note": "The other results are listed elsewhere or left out."}
{"molecular_target": "T1, MBP-FoxP1dN (Mus musculus, UniProt P58462 326-579)", "T1 sequence": "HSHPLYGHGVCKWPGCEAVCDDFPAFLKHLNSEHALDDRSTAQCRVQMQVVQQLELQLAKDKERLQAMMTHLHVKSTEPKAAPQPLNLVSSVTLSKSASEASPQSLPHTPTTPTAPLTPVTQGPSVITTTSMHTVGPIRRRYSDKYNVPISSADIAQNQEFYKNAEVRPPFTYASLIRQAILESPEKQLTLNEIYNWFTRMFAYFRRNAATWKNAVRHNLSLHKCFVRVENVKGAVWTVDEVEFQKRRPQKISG", "assay": "PD-seq (MBP pull-down with sequencing); 20 mM Tris-HCl pH 7.5, 100 mM NaCl, 1.5 mM MgCl2, 0.4 uM protein, 0.1 uM dsDNA library, 30 min, room temperature, amylose pull-down; high values mean tight binding", "conditions": "protein: recombinant; tags: His6-MBP; chain copies: 2; dsDNA, one strand shown", "summary_of_the_method": "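Mouse FoxP3 or FoxP1 fragment lacking the N-terminus, His6-MBP-tagged and expressed in E. coli, was incubated at 0.4 µM with 0.1 µM Klenow-filled degenerate double-stranded DNA library for 30 min at room temperature in Tris pH 7.5 buffer with NaCl and MgCl2. Complexes captured on amylose resin were washed three times and their DNA sequenced on Illumina. Binding is reads-per-million enrichment of pull-down over input, replicates pooled.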"}
{"sequence": "GATGATTGTTCTCCCAGCTGATGAATTGAGGTAGTCGAGTAAACAAATTTTCCTAATCTTTCTGTTCAAGCGCCATCTAC", "binding signal": "0.86 RPM ratio (pull-down/input)"}
{"sequence": "GATGATTGTTCTCCCAGCTGATGAATTGAGCTGATCGAGTAAACAAATTTTCCTAATCTTTCTGTTCAAGCGCCATCTAC", "binding signal": "0.869 RPM ratio (pull-down/input)"}
{"sequence": "GATGATTGTTCTCCCAGCTGATGAATTCTGTGGCTCGAGTAAACAAATTTTCCTAATCTTTCTGTTCAAGCGCCATCTAC", "binding signal": "0.917 RPM ratio (pull-down/input)"}
{"sequence": "GATGATTGTTCTCCCAGCTGATGAATTCTCGTAGTCGAGTAAACAAATTTTCCTAATCTTTCTGTTCAAGCGCCATCTAC", "binding signal": "0.927 RPM ratio (pull-down/input)"}
{"sequence": "GATGATTGTTCTCCCAGCTGATGAATTGCCTATATCGAGTAAACAAATTTTCCTAATCTTTCTGTTCAAGCGCCATCTAC", "binding signal": "0.991 RPM ratio (pull-down/input)"}
{"sequence": "GATGATTGTTCTCCCAGCTGATGAATTCTCAGAATCGAGTAAACAAATTTTCCTAATCTTTCTGTTCAAGCGCCATCTAC", "binding signal": "0.904 RPM ratio (pull-down/input)"}
{"sequence": "GATGATTGTTCTCCCAGCTGATGAATTACCGGAGTCGAGTAAACAAATTTTCCTAATCTTTCTGTTCAAGCGCCATCTAC", "binding signal": "0.847 RPM ratio (pull-down/input)"}
{"sequence": "GATGATTGTTCTCCCAGCTGATGAATTAACATTTTCGAGTAAACAAATTTTCCTAATCTTTCTGTTCAAGCGCCATCTAC", "binding signal": "1.21 RPM ratio (pull-down/input)"}
{"sequence": "GATGATTGTTCTCCCAGCTGATGAATTGAGGATTTCGAGTAAACAAATTTTCCTAATCTTTCTGTTCAAGCGCCATCTAC", "binding signal": "0.811 RPM ratio (pull-down/input)"}
{"sequence": "GATGATTGTTCTCCCAGCTGATGAATTACGGATGTCGAGTAAACAAATTTTCCTAATCTTTCTGTTCAAGCGCCATCTAC", "binding signal": "0.941 RPM ratio (pull-down/input)"}
{"sequence": "GATGATTGTTCTCCCAGCTGATGAATTAAATGCGTCGAGTAAACAAATTTTCCTAATCTTTCTGTTCAAGCGCCATCTAC", "binding signal": "1.43 RPM ratio (pull-down/input)"}
{"sequence": "GATGATTGTTCTCCCAGCTGATGAATTGCTGGAGTCGAGTAAACAAATTTTCCTAATCTTTCTGTTCAAGCGCCATCTAC", "binding signal": "0.902 RPM ratio (pull-down/input)"}
{"sequence": "GATGATTGTTCTCCCAGCTGATGAATTAACCATTTCGAGTAAACAAATTTTCCTAATCTTTCTGTTCAAGCGCCATCTAC", "binding signal": "0.907 RPM ratio (pull-down/input)"}
{"sequence": "GATGATTGTTCTCCCAGCTGATGAATTGAATAAATCGAGTAAACAAATTTTCCTAATCTTTCTGTTCAAGCGCCATCTAC", "binding signal": "1.12 RPM ratio (pull-down/input)"}
{"sequence": "GATGATTGTTCTCCCAGCTGATGAATTCTTATCCTCGAGTAAACAAATTTTCCTAATCTTTCTGTTCAAGCGCCATCTAC", "binding signal": "0.857 RPM ratio (pull-down/input)"}
{"sequence": "GATGATTGTTCTCCCAGCTGATGAATTGCTAGTCTCGAGTAAACAAATTTTCCTAATCTTTCTGTTCAAGCGCCATCTAC", "binding signal": "1.02 RPM ratio (pull-down/input)"}
{"sequence": "GATGATTGTTCTCCCAGCTGATGAATTAGTTTATTCGAGTAAACAAATTTTCCTAATCTTTCTGTTCAAGCGCCATCTAC", "binding signal": "1.3 RPM ratio (pull-down/input)"}
{"sequence": "GATGATTGTTCTCCCAGCTGATGAATTGTGGCCTTCGAGTAAACAAATTTTCCTAATCTTTCTGTTCAAGCGCCATCTAC", "binding signal": "1.13 RPM ratio (pull-down/input)"}
{"sequence": "GATGATTGTTCTCCCAGCTGATGAATTAGTATCTTCGAGTAAACAAATTTTCCTAATCTTTCTGTTCAAGCGCCATCTAC", "binding signal": "1.09 RPM ratio (pull-down/input)"}
{"sequence": "GATGATTGTTCTCCCAGCTGATGAATTGGACCTGTCGAGTAAACAAATTTTCCTAATCTTTCTGTTCAAGCGCCATCTAC", "binding signal": "0.77 RPM ratio (pull-down/input)"}
{"sequence": "GATGATTGTTCTCCCAGCTGATGAATTTAAGCTGTCGAGTAAACAAATTTTCCTAATCTTTCTGTTCAAGCGCCATCTAC", "binding signal": "0.937 RPM ratio (pull-down/input)"}
{"sequence": "GATGATTGTTCTCCCAGCTGATGAATTCTGGGACTCGAGTAAACAAATTTTCCTAATCTTTCTGTTCAAGCGCCATCTAC", "binding signal": "0.753 RPM ratio (pull-down/input)"}
{"sequence": "GATGATTGTTCTCCCAGCTGATGAATTGAGTCACTCGAGTAAACAAATTTTCCTAATCTTTCTGTTCAAGCGCCATCTAC", "binding signal": "0.924 RPM ratio (pull-down/input)"}
{"sequence": "GATGATTGTTCTCCCAGCTGATGAATTCGCCACTTCGAGTAAACAAATTTTCCTAATCTTTCTGTTCAAGCGCCATCTAC", "binding signal": "0.857 RPM ratio (pull-down/input)"}
{"sequence": "GATGATTGTTCTCCCAGCTGATGAATTTTCCTCGTCGAGTAAACAAATTTTCCTAATCTTTCTGTTCAAGCGCCATCTAC", "binding signal": "0.898 RPM ratio (pull-down/input)"}
{"sequence": "GATGATTGTTCTCCCAGCTGATGAATTAGCTCTGTCGAGTAAACAAATTTTCCTAATCTTTCTGTTCAAGCGCCATCTAC", "binding signal": "0.794 RPM ratio (pull-down/input)"}
{"sequence": "GATGATTGTTCTCCCAGCTGATGAATTCTAGTACTCGAGTAAACAAATTTTCCTAATCTTTCTGTTCAAGCGCCATCTAC", "binding signal": "0.84 RPM ratio (pull-down/input)"}
{"sequence": "GATGATTGTTCTCCCAGCTGATGAATTCGGTTGTTCGAGTAAACAAATTTTCCTAATCTTTCTGTTCAAGCGCCATCTAC", "binding signal": "1.21 RPM ratio (pull-down/input)"}
{"sequence": "GATGATTGTTCTCCCAGCTGATGAATTTAAATGTTCGAGTAAACAAATTTTCCTAATCTTTCTGTTCAAGCGCCATCTAC", "binding signal": "1.03 RPM ratio (pull-down/input)"}
{"sequence": "GATGATTGTTCTCCCAGCTGATGAATTGCGTAACTCGAGTAAACAAATTTTCCTAATCTTTCTGTTCAAGCGCCATCTAC", "binding signal": "1.14 RPM ratio (pull-down/input)"}
{"sequence": "GATGATTGTTCTCCCAGCTGATGAATTGGAAATATCGAGTAAACAAATTTTCCTAATCTTTCTGTTCAAGCGCCATCTAC", "binding signal": "0.978 RPM ratio (pull-down/input)"}
